# Assay results published in the supplement of paper PMC8728848.
# Some of the results follow.
# Columns and labels:
# Assay in all cases: glycan array binding signal (z-score within array); higher = stronger binding
# Details in all cases: glycan notation: IUPAC condensed, linker removed
# Gal6S(b1-4)Glc6S = target: Gal6S(b1-4)Glc6S
# Method in brief: (§1)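 The binding signal is a Z-score computed within each array. Data were drawn from 3228 arrays in the Consortium for Functional Glycomics database, restricted to those with a known protein sequence. Scores were averaged over arrays of the same protein sequence at different concentrations or buffers, and over linkers, and negative values can be taken as non-binding.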
# Gal6S(b1-4)GlcNAc = target: Gal6S(b1-4)GlcNAc
# Method in brief: as §1
# Gal6S(b1-4)GlcNAc6S = target: Gal6S(b1-4)GlcNAc6S
# Method in brief: as §1
# GalNAc(a1-3)Gal = target: GalNAc(a1-3)Gal
# Method in brief: as §1
# GalNAc(a1-3)GalNAc = target: GalNAc(a1-3)GalNAc
# Method in brief: as §1
# [1] = target: GalNAc(a1-3)GalNAc(b1-3)Gal(a1-4)Gal(b1-4)Glc
# Method in brief: as §1
# [2] = target: GalNAc(a1-3)GalNAc(b1-3)Gal(a1-4)Gal(b1-4)GlcNAc
# Method in brief: as §1
# GalNAc(b1-3)Gal = target: GalNAc(b1-3)Gal
# Method in brief: as §1
# [3] = target: GalNAc(b1-3)Gal(a1-4)Gal(b1-4)GlcNAc
# Method in brief: as §1
# [4] = target: GalNAc(b1-3)Gal(a1-4)Gal(b1-4)GlcNAc(b1-3)Gal(b1-4)Glc
# Method in brief: as §1
# [5] = target: GalNAc(b1-3)Gal(a1-6)Gal(b1-4)Glc
# Method in brief: as §1
# GalNAc(b1-3)GalNAc = target: GalNAc(b1-3)GalNAc
# Method in brief: as §1
# GalNAc(b1-3)GlcNAc = target: GalNAc(b1-3)GlcNAc
# Method in brief: as §1
# GalNAc(b1-4)Gal(b1-4)Glc = target: GalNAc(b1-4)Gal(b1-4)Glc
# Method in brief: as §1
# GalNAc(b1-4)GlcNAc = target: GalNAc(b1-4)GlcNAc
# Method in brief: as §1
# [6] = target: GalNAc(b1-4)GlcNAc(b1-2)Man
# Method in brief: as §1
# [7] = target: GalNAc(b1-4)GlcNAc(b1-2)Man(a1-3)[GalNAc(b1-4)GlcNAc(b1-2)Man(a1-6)]Man(b1-4)GlcNAc(b1-4)GlcNAc
# Method in brief: as §1
# [8] = target: GalNAc(b1-4)GlcNAc(b1-3)GalNAc(b1-4)GlcNAc
# Method in brief: as §1
# GalNAc(b1-4)GlcNAc6S = target: GalNAc(b1-4)GlcNAc6S
# Method in brief: as §1
# GalNAc(b1-6)GalNAc = target: GalNAc(b1-6)GalNAc
# Method in brief: as §1
# GalNAc3S(b1-4)GlcNAc = target: GalNAc3S(b1-4)GlcNAc
# Method in brief: as §1
# GalNAc3S(b1-4)GlcNAc3S = target: GalNAc3S(b1-4)GlcNAc3S
# Method in brief: as §1
# [9] = target: GalNAc3S(b1-4)[Fuc(a1-3)]GlcNAc
# Method in brief: as §1
# GalNAc4S6S(b1-4)GlcNAc = target: GalNAc4S6S(b1-4)GlcNAc
# Method in brief: as §1
# GalNAc6S(b1-4)GlcNAc = target: GalNAc6S(b1-4)GlcNAc
# Method in brief: as §1
# Glc(a1-4)Glc = target: Glc(a1-4)Glc
# Method in brief: as §1
# [10] = target: Glc(a1-4)Glc(a1-4)Glc(a1-4)Glc
# Method in brief: as §1
# Glc(a1-6)Glc(a1-6)Glc = target: Glc(a1-6)Glc(a1-6)Glc
# Method in brief: as §1
# [11] = target: Glc(a1-6)Glc(a1-6)Glc(a1-6)Glc
# Method in brief: as §1
# Glc(b1-4)Glc = target: Glc(b1-4)Glc
# Method in brief: as §1
# Glc(b1-6)Glc = target: Glc(b1-6)Glc
# Method in brief: as §1
# GlcA(b1-3)Gal = target: GlcA(b1-3)Gal
# Method in brief: as §1
# GlcA(b1-3)GlcNAc = target: GlcA(b1-3)GlcNAc
# Method in brief: as §1
# GlcA(b1-6)Gal = target: GlcA(b1-6)Gal
# Method in brief: as §1
# [12] = target: GlcA3S(b1-3)Gal(b1-4)GlcNAc(b1-2)Man
# Method in brief: as §1
# [13] = target: GlcA3S(b1-3)Gal(b1-4)GlcNAc(b1-3)Gal(b1-4)Glc
# Method in brief: as §1
# [14] = target: GlcNAc(a1-3)Gal(b1-4)GlcNAc
# Method in brief: as §1
binder,measurement,setting,value
Si Bti9 1b-HA (Solanum lycopersicum) (protein) MFESRPRSVLSLGVFVILVYLSSVPLPVNSQCNRGCDLALASFYVWRGSNLTLISEMFSTSIADIVSYNNRDNIPNQDSVIAGTRINIPFRCDCLNDGEVLGHAFPYRVKSGDTYDLVARNYSDLTTAQWMMKFNSYPENNIPNTVNLSVVVNCSCGNSDVSKDFGLFVTYPVRAEDNLTSVASAANVSEDIIRRYNPAAVSILDIGQGIIYIPGRDRNGNFPPLPTSTDGLSGGAKAPLFFNPAFLYKVVELKLAGRSRTSGYPYDVPDYAGYPYDVPDYALEVLFQ,glycan array binding signal (z-score),Gal6S(b1-4)Glc6S,0.052
same,glycan array binding signal (z-score),Gal6S(b1-4)GlcNAc,-0.69
same,glycan array binding signal (z-score),Gal6S(b1-4)GlcNAc6S,-0.401
same,glycan array binding signal (z-score),GalNAc(a1-3)Gal,-0.495
same,glycan array binding signal (z-score),GalNAc(a1-3)GalNAc,-0.348
same,glycan array binding signal (z-score),[1],-0.378
same,glycan array binding signal (z-score),[2],-0.179
same,glycan array binding signal (z-score),GalNAc(b1-3)Gal,0.977
same,glycan array binding signal (z-score),[3],0.138
same,glycan array binding signal (z-score),[4],-0.491
same,glycan array binding signal (z-score),[5],-0.183
same,glycan array binding signal (z-score),GalNAc(b1-3)GalNAc,-0.227
same,glycan array binding signal (z-score),GalNAc(b1-3)GlcNAc,-0.209
same,glycan array binding signal (z-score),GalNAc(b1-4)Gal(b1-4)Glc,1.15
same,glycan array binding signal (z-score),GalNAc(b1-4)GlcNAc,-0.116
same,glycan array binding signal (z-score),[6],-0.452
same,glycan array binding signal (z-score),[7],0.635
same,glycan array binding signal (z-score),[8],-0.01
same,glycan array binding signal (z-score),GalNAc(b1-4)GlcNAc6S,-0.204
same,glycan array binding signal (z-score),GalNAc(b1-6)GalNAc,-0.608
same,glycan array binding signal (z-score),GalNAc3S(b1-4)GlcNAc,-0.59
same,glycan array binding signal (z-score),GalNAc3S(b1-4)GlcNAc3S,-0.336
same,glycan array binding signal (z-score),[9],-0.449
same,glycan array binding signal (z-score),GalNAc4S6S(b1-4)GlcNAc,-0.286
same,glycan array binding signal (z-score),GalNAc6S(b1-4)GlcNAc,-0.519
same,glycan array binding signal (z-score),Glc(a1-4)Glc,0.127
same,glycan array binding signal (z-score),[10],0.208
same,glycan array binding signal (z-score),Glc(a1-6)Glc(a1-6)Glc,0.168
same,glycan array binding signal (z-score),[11],-0.061
same,glycan array binding signal (z-score),Glc(b1-4)Glc,0.238
same,glycan array binding signal (z-score),Glc(b1-6)Glc,0.237
same,glycan array binding signal (z-score),GlcA(b1-3)Gal,0.093
same,glycan array binding signal (z-score),GlcA(b1-3)GlcNAc,-0.011
same,glycan array binding signal (z-score),GlcA(b1-6)Gal,-0.21
same,glycan array binding signal (z-score),[12],-0.207
same,glycan array binding signal (z-score),[13],-0.157
same,glycan array binding signal (z-score),[14],-0.398
